First the molecules themselves.
B1: LINE1-mini (parent)
chain: GGCAGAGCUCAACACAGCGUGGCAAAGUGGCUGUGGCUAGACUGCC

The source gives no read counts; variants with many changes may rest on few reads.

The variants in the data set derive from B1. Description: self-cleavage, relative activity (ratio to wild type); higher = more cleavage; in vitro, sequencing; the parent is a self-cleaving ribozyme.
As for A12U G27U G30C U43C, the self-cleavage worked out at 0.02.

For the variant C13A A24U G36A A41G, the self-cleavage worked out at 0.01. Turning to A12U U32A G36U C46A, the self-cleavage was 0. For A12U G22U C37U A41U, the self-cleavage was 0.

In the case of A12U A39C G44A, the self-cleavage was 0.03. Turning to A12U C23A G36A, the self-cleavage is 0.01. The figure for A12U U20C C45G is 0.01. The figure for A12G U28C A41U is 0.01. The figure for A12U C15A G17C G27C is 0.04. As for C13A A24G G27C U28G, the self-cleavage was 0.13.

In the case of A12U G22A A39C C46U, the self-cleavage came out at 0.02. Consider C13A C37U C46G, for which the self-cleavage came out at 0.02.

C13A C15G G40U: the self-cleavage is 0.1.

Consider C13A C15G G17U U34A, for which the self-cleavage was found to be 0.39. As for C13A A14U G27C, the self-cleavage came to 0.03. As to C13A A25G G36C C37G C42G, the self-cleavage turned out to be 0.01. The value for C13A C18A U28G C46G was 0.04; that for C13A C18A U28C was 0.06. The figure for A12U G17U C37U C45U is 0.02. The value for A12U G21A U38C was 0.2. As for C13A A16G G33U, the self-cleavage was found to be 0.11. The figure for A12U G19A G22U is 0.27. On to C13A C23A A26G U28C C31A C45G C46A, for which the self-cleavage came to 0.03. The figure for C13A C37G U43A is 0.08. The value for C13A A16C G22A was 0.04. The figure for A12U G19C G44A is 0.04. Regarding A12U G22C G40A, the self-cleavage is 0.07.

As for A12U A26U G35U, the self-cleavage was found to be 0.13. The figure for C13A A26G G30U is 0.01; for A12U G29C A41C it is 0.05. On to C13A A39G G40A C45U, for which the self-cleavage worked out at 0.09. Consider A12U C23G U38G A39C G44C, for which the self-cleavage came to 0.01. With C13A C23U G36U, the self-cleavage was found to be 0.15. The figure for C13A C23A C31A is 0.04; for A12U C15G U20A U32G G36A C37U it is 0.01. The value for A12U C13U A41U C45A was 0.06; that for A12U G17U A25C G30C was 0.19; that for C13A C15U U20C A41G was 0.18. The figure for C13A C15G G30C U38G is 0.01; for A12U C13A A16G U32A U34A it is 0.02. Consider C13A C23U A39G, for which the self-cleavage is 0.09. For the variant A12U A16G G19U G35A G40C, the self-cleavage stood at 0.03. The value for A12U G21A A25U G36A was 0.02; that for A12U G30U G35U was 0.09; that for C13A C18G A39C was 0.02. With C13A A25G G27U G35A C42U, the self-cleavage is 0.04.

On to C13A C23U G35U, for which the self-cleavage was found to be 1.31. The figure for A12U C31U A41U U43C is 0.03. The value for A12U A16U G22U A41G was 0.01; that for A12U A24G C31A was 0. The value for A12U G17U C23G G27U was 0.13; that for A12U C13U C18G G19A G30A U34A was 0.01; that for C13A A24U G36U was 0.88. With A12U C13A G30A, the self-cleavage was found to be 0.2.

Turning to A12U A14U G36A, the self-cleavage is 0.03. With A12U G22C G40U U43A, the self-cleavage stood at 0.04. The value for A12U C23G A26G was 0.09. The figure for A12U C13A A41G is 0.04; for A12U A14U A16G it is 0.02.

As to A12U G30C C45A, the self-cleavage was found to be 0.02. Take A12U A26U G36U C37G: the self-cleavage was 0.01. The value for A12U G29A G40A A41G was 0.08; that for A12U U32A G36A was 0.14; that for A12U C13G C23U A24G was 0.16. As for A12U U20A G22C U32C C37U C45U, the self-cleavage stood at 0. As to C13A A14C G35A G40U, the self-cleavage was 0.

As for A12U A16G G27U, the self-cleavage came out at 0.45. On to A12U G19C C23A U38G G40U, for which the self-cleavage was 0.01. The value for C13A A24G G27C was 0.06; that for A12U G30U U32G was 0.05; that for A12U G17U C45U was 0.05. The figure for A12U C13G A14C is 0.01; for C13A A24U G27U G36U C46A it is 0.05; for A12U G27U G33U C37A C46U it is 0.01. The value for A12U G19C C23G C31G U38C was 0.11. Consider C13A C15A G21U G22C, for which the self-cleavage turned out to be 0.03. The figure for A12G U34C C37U U38G is 0.01; for A12U A14C G36C C46G it is 0. The figure for A12U G27U G44U is 0.36; for A12U A16U A26C G30A it is 0.02. The value for A12U U20G G21U C31G was 0.01; that for A12U C18G G40A was 0.04; that for A12G U28G G36C U43A was 0.01. As to C13A A25C G29A U32C G35C, the self-cleavage came out at 0.07. Consider C13A G17A A26C G30U, for which the self-cleavage was 0.12. For A12U A16G G33C G40U, the self-cleavage came to 0.01.

As to C13A A16U U38C, the self-cleavage was determined as 0.69. As for A12U C13A C18U G30C G36U, the self-cleavage turned out to be 0.09. The value for C13A A26C U34G C42U was 0.06. The value for C13A A16C C31U G35A was 0.06.

As to A12U G17U G19C A25C, the self-cleavage was 0.27. The figure for A12U G29C A39U C45U is 0.13; for A12U G29C C37U G40A it is 0. The figure for C13A C23U C46A is 0.05; for C13A C37U U43A G44A it is 0.15; for A12U C31G A39C it is 0.01. Consider C13A C15U A24U U38A A39C G44C, for which the self-cleavage amounted to 0.1. In the case of A12U G33U C37A U43A, the self-cleavage worked out at 0.39. The value for A12U C18U G29A G30C was 0.51. Turning to A12U G29U G30C C45G, the self-cleavage came to 0.02. As to C13A A14G C15G C18G A25C U43C, the self-cleavage is 0.01. The value for C13A A16C A26C was 0.05. The figure for C13A C18G G22A G27C G35A G36A is 0.66; for A12U G22C A25U it is 0.22. The figure for A12U A24U C45A is 0.17; for A12U G29C U32A G36U C45A C46G it is 0.09; for A12U A16C U20A it is 0.08. As to C13A C15A A16C, the self-cleavage was determined as 0.09. The figure for A12U G19A G27U is 0.1; for A12U G22U A25U G30C G33A C37G it is 0; for C13A C15U G22A U28C it is 0.13. On to A12U G21U G40U C46U, for which the self-cleavage is 0.02. The value for C13A C23G G40A was 0.04; that for A12U A16G U38A A39C C42G was 0.02.

On to A12U U20C U32G G35U C42A, for which the self-cleavage came to 0. The figure for C13A A24C A25C G30U U32A is 0.07; for A12U G29U G35U G36A it is 0.09.

Turning to A12U G19A C31G, the self-cleavage was found to be 0.01. The figure for A12U C18A U43G C45G is 0.02. As for C13A A14C U32C, the self-cleavage was 0.08. Regarding A12U C13U A41G, the self-cleavage amounted to 0.05. Consider C13A C15G G21U C31U C46U, for which the self-cleavage turned out to be 0.02. Turning to A12G U28A U43A, the self-cleavage was determined as 0.03.

On to A12U G22C A25G G30A C31U, for which the self-cleavage is 0.02. As to A12U C15U U28C, the self-cleavage was 0.14.

As for A12U A24U U28A U34C G36U, the self-cleavage stood at 0.04. The figure for A12U U32G G36U is 0.01; for C13A A26U G44A C46U it is 0.06; for A12U A14U C23A it is 2.89. The value for A12U C31A G35U was 0.01; that for C13A A25C G36A was 0.02.

For A12U G21A U28C A41G, the self-cleavage was 0.03. The value for C13A A14C C15A G17A G22U C23A G35C was 0.02; that for C13A C23G A24C U32C G36A was 0.01; that for C13A C15A G17A G19C G22C U43G C45G was 0.07. Regarding A12U U34G G35C G36A, the self-cleavage is 0.09.

In the case of A12U A14C C31G, the self-cleavage is 0.

For the variant C13A A16U C18U U34A A41G C46U, the self-cleavage is 0.04. The figure for A12U C13A C37U A41C C46U is 0.01.

Turning to C13A A26G G29C, the self-cleavage worked out at 0.05. The value for C13A C15U A16C G17C was 0.03; that for A12U C23G G40C was 0.04; that for C13A A24C C37U G40U C46A was 0.02. In the case of A12G U34G G40A, the self-cleavage came out at 0.

Consider A12U U20C G36U, for which the self-cleavage turned out to be 0.02. The value for C13A A16G C18G was 0.13; that for A12U C15A U34C was 0.12; that for A12U C13A G30A A39U was 0.09.

Regarding C13A A24G G27A G33U, the self-cleavage is 0.01. Regarding C13A C23U G33U C45U, the self-cleavage was found to be 0.02. Turning to A12U A25C G30A U38A G40A, the self-cleavage was determined as 0.05. The figure for C13A C15G U32C G36U is 0.05; for A12U A16G G30A it is 0.03; for A12U A14G A39C A41C it is 0.05. Consider A12G U34A G44U, for which the self-cleavage came out at 0.03. The figure for C13A C18A G29C is 0.45; for A12U G22U G36C it is 0.18; for A12U A16C G17U it is 0.03. The figure for C13A C31G C42G is 0.1; for A12U G19A U20G G21A U34G it is 0.06. The figure for C13A A39U C45A is 0.09; for C13A A25G U38A G44U it is 0.01; for A12U G21U U34G it is 0.03.

Turning to C13A A26G G30C U32G, the self-cleavage was 0.02. The value for A12U C18U G36U was 0.03. The value for A12U U28G A39C was 0.07. Turning to A12G U28C U38C G40C, the self-cleavage is 0.06.

(Values after the RNAGym collection of RNA variant scans (doi:10.7554/elife.90254).)
